Experimental data: the supplement of paper PMC4166925
± gives the standard deviation of the averaged measurements. The full ranking holds about 33,000 sequences; the median of “E-score (dimensionless, -0.5 to 0.5)” is about -0.046, and the highest 2% start at about 0.36. Some of the results follow.

The sequences below were run on T1, SpTbr T-box DNA-binding domain (GST fusion) (assay: PBM E-score of 8-mer (E-score (dimensionless, -0.5 to 0.5)); Tbr is Tbrain of the sea star Patiria miniata (Pm) or the sea urchin Strongylocentrotus purpuratus (Sp); higher = stronger binding preference; most listed sequences are background and not binding sites). Conditions: the construct has about 5 more residues each side.
T1 sequence: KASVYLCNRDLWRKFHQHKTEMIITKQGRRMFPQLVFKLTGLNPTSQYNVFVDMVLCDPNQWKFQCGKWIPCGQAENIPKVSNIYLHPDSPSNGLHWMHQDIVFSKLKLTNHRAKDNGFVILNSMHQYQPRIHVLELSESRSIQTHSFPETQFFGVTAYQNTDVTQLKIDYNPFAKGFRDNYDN
Summary of the method: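 GST-fused Tbr T-box DNA-binding domains (the whole T-box plus about five flanking residues) were expressed in BL21 E. coli at 20 °C and purified by glutathione affinity chromatography. Universal Agilent oligonucleotide arrays were made double-stranded by primer extension, incubated with 200 nM protein in PBS (pH 7.5), then scanned and quantified. Every ungapped 8-mer was scored from probe intensities. The Universal PBM Analysis Suite gave each word an enrichment E-score, averaged over duplicate arrays.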

Sequence	PBM E-score of 8-mer
ACCGTCGA	0.0295 ± 0.02
GGCGTAAA	0.215 ± 0.093
ACCTGTCG	0.37 ± 0.011
CGTCGAAG	0.0761 ± 0.022
CGTCCATC	-0.2454 ± 0.0015
CGAAGATC	0.0347 ± 0.0039
AGTGGTAA	0.123 ± 0.0042
TGACTAAA	-0.0967 ± 0.036
CTAAATAC	-0.0239 ± 0.037
CTTGATGA	0.0805 ± 0.032
TGGGCCCA	-0.277 ± 0.054
TAACCAAA	-0.211 ± 0.055
AAAAGGCT	-0.113 ± 0.038
ACTAGGTA	-0.0768 ± 0.014
CCGACATA	-0.00631 ± 0.021
ACATTGCT	0.124 ± 0.025
CGGTCCTA	-0.206 ± 0.017
TGGGGAAA	0.0585 ± 0.011
AATTCTAA	-0.217 ± 0.049
CTTGTTGA	0.174 ± 0.02
AAACATCG	-0.0785 ± 0.0083
CATAAAAA	-0.195 ± 0.089
CCTAAATC	0.0624 ± 0.1
GGATTCAA	-0.285 ± 0.039

Sequence	PBM E-score of 8-mer
CAGCATAA	-0.222 ± 0.0034
TAGCCACA	0.153 ± 0.059
TCTTCCAA	-0.156 ± 0.023
GACGAGGC	0.0588 ± 0.057
AACACCTT	0.479 ± 0.0049
AGTAGACT	-0.0251 ± 0.059
GAATACTA	-0.167 ± 0.03
ATAGGTTA	-0.224 ± 0.055
GACGTTCC	-0.197 ± 0.016
CGTGCGGA	0.147 ± 0.028
AATCCGTG	0.113 ± 0.043
CAGGAGAA	-0.162 ± 0.05
GGTACACA	-0.053 ± 0.021
CACAGATG	0.0328 ± 0.018
CTAGGTTC	-0.116 ± 0.048
ACACCGCG	0.286 ± 0.013
CCTGTGAG	0.24582 ± 4.2e-05
CCTTATCA	0.0899 ± 0.063
GAACCGGC	-0.149 ± 0.0061
ACATTCTC	0.171 ± 0.072
ACCCAGAC	0.0883 ± 0.036
GCCCATCC	-0.143 ± 0.012
AATCGGCT	-0.0394 ± 0.044
CAGGGCAG	0.031 ± 0.018

Sequence	PBM E-score of 8-mer
AGTATTCG	-0.0814 ± 0.025
CAAAGTTC	-0.112 ± 0.022
CTTATTAA	-0.183 ± 0.12
CGGCGGCC	-0.26 ± 0.033
TACTAACA	0.209 ± 0.041
CATTGTGC	-0.0653 ± 0.0057
CAGGAATC	-0.232 ± 0.031
TATAATGA	-0.0237 ± 0.028
AGAACCAG	-0.162 ± 0.11
ATTAAGTG	0.168 ± 0.014
GGTTCAAA	-0.343 ± 0.0085
CGCACCAG	0.242 ± 0.0071
CGTATCCC	-0.0676 ± 0.046
GCGCGGGA	0.114 ± 0.029
GCGCCACC	0.276 ± 0.072
ATTTCATC	-0.187 ± 0.026
GCGTTACA	0.189 ± 0.017
ATCTGTGG	-0.149 ± 0.04
GCAGCAGA	-0.132 ± 0.033
GTTTTCTA	-0.191 ± 0.007
ATAATCCG	-0.0937 ± 0.034
AGTACTTC	-0.321 ± 0.02
GCCCTGTA	-0.202 ± 0.063
GAAAAAGA	-0.137 ± 0.024

Sequence	PBM E-score of 8-mer
GCAAAAAA	-0.111 ± 0.022
ATTCCGGA	-0.253 ± 0.0058
CAACGCTC	0.00391 ± 0.055
CAGAGGAG	-0.063 ± 0.011
CCTTGGCC	-0.182 ± 0.029
GCATATTA	-0.0537 ± 0.048
GCGTTTCC	-0.056 ± 0.057
AGTCGTAG	-0.0391 ± 0.08
CTACCTTA	-0.147 ± 0.033
TACAGGAA	0.05 ± 0.067
GAGTTCTA	-0.148 ± 0.046
ATGATTCG	-0.0332 ± 0.085
AGCGTGAT	0.28 ± 0.022
GTACGTCA	0.0569 ± 0.035
CCTTTCAC	0.2919 ± 0.002
ATTGGCCG	-0.0513 ± 0.017
CAGACGCC	0.0869 ± 0.0014
AGGCGAAG	0.0362 ± 0.05
CCGCCCAA	-0.0788 ± 0.015
ATTTGCAG	0.0673 ± 0.041
GCGTTCCA	-0.152 ± 0.0033
GGCACAAC	0.0727 ± 0.06
